# According to PubChem BioAssay AID624417 (National Center for Advancing Translational Sciences (NCATS), 2012):
# Screen size: about 410,000 compounds; about 6,400 (1.6%) were called active. Inconclusive results, whose numbers are uncertain, are shown with a selection of clear calls. Calls follow the shape of the dose curve; as a rule, active = well fitted inhibition curve with a large enough effect; inconclusive = small, poorly fitted or top-dose-only effect; inactive = no such curve, though single readings can be large or run the other way. Potencies of inconclusive entries are left out as doubtful fits.
# Molecular target: Glucagon-like peptide 1 receptor (Homo sapiens) (UniProt P43220)
# Test: qHTS of GLP-1 Receptor Inverse Agonists (Inhibition Mode); also: nearly all actives have a fitted effect of over 55% in size
# Conditions: HEK293 GLP-1R CRE-luciferase, luminescence, 24 h, GLP-1R form is constitutively active; activity change, negative = inhibition: at 38.3 µM (top of the series) unless noted
# Method in brief: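 Cells are plated, allowed 12 hours at 37 deg C, then treated with compounds for 24 hr before luciferase detection reagent is added and luminescence is read after 12 min at room temperature. The HEK293 line carries constitutively active GLP-1R with a cAMP-responsive reporter.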
# % is scaled to controls: 0 for no effect and ±100 for the full control effect; potency is read from the fitted curve at half-maximal effect; tags tell the direction and shape of the fitted curve.
# UniProt P43220, sequence (P43220 whole entry, looked up): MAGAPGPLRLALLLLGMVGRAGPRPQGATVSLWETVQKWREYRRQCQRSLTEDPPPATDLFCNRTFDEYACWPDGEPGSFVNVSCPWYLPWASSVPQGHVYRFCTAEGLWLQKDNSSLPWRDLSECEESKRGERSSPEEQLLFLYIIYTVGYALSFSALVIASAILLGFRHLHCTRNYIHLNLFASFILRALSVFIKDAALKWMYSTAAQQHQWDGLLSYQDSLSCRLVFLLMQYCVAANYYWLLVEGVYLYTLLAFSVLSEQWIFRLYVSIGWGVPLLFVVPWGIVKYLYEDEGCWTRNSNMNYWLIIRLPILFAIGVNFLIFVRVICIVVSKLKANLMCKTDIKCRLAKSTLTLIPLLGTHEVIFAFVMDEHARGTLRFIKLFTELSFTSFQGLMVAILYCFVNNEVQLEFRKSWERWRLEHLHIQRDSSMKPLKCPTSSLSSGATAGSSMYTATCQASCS
Compound,Potency,"activity change, negative = inhibition"
COC(=O)[C@@]12C[C@@H](CC(=O)NCCc3ccccc3OC)C(=O)N(Cc3cccc4ccccc34)C1=CCC(C)(C)C2,"inconclusive [inhibitor, partial curve, poor fit]",–
Cc1ccc(C(C)NC(=O)CSc2ccc(S(=O)(=O)N3CCOCC3)cn2)cc1C (configuration not stated),–,inactive: -8.42%
CC(=O)Oc1ccc(C(=O)Nc2cccc(C(=O)c3ccc(C)c(C)c3)c2)cc1,active: 12.6 µM,–
CCOC(=O)c1cccc(Nc2cc(C)nc(C)n2)c1,–,inactive: 21.3%
CC1C(=O)Nc2ccccc2N1C(=O)c1ccc(Cl)c(Cl)c1 (configuration not stated),"inconclusive [inhibitor, partial curve, poor fit]",–
COc1ccc(C(=S)NC2CCCCC2)cc1,"inconclusive [inhibitor, single point]",–
C/C(=N\NC(=O)C1CCCC1)c1ccc(C(C)C)cc1,"inconclusive [inhibitor, partial curve, poor fit]",–
O=C(CCc1ccc(Oc2cc([N+](=O)[O-])cc([N+](=O)[O-])c2)cc1)N1CCCCCC1,"inconclusive [inhibitor, single point]",–
CCc1ccc(NC(=O)CCNS(=O)(=O)c2cccc3nonc23)cc1,–,inactive: -8.81%
Cc1nc(C(=O)NC2CCCCC2)sc1C1(C)CC(c2cccc([N+](=O)[O-])c2)=NO1 (configuration not stated),"inconclusive [inhibitor, single point]",–
COc1ccc(CN2CCN(Cc3c[nH]c4ccccc34)CC2)cc1,"inconclusive [inhibitor, partial curve, poor fit]",–
CC(C)(C)C(O)(CC#CCN1CCCC1)c1ccccc1 (configuration not stated),"inconclusive [inhibitor, partial curve, poor fit]",–
Cc1ccc(CCNC(=O)c2ccc(CSCc3ccc(C)cc3)o2)cc1,"inconclusive [inhibitor, single point]",–
O=C(NCCc1ccccc1Cl)C1CCC(=O)N(Cc2ccc(Cl)cc2)C1 (configuration not stated),"inconclusive [inhibitor, partial curve, poor fit]",–
COc1ccc(C(=O)c2ccc(C)cc2)c(OC)c1OC,"inconclusive [inhibitor, partial curve]",–
CC(Cc1cccs1)NC(=O)Nc1ccc(Cl)cc1 (configuration not stated),"inconclusive [inhibitor, partial curve, poor fit]",–
O=C(C[C@H]1C[C@H](C(=O)N2CCCCC2)[C@@]2(CCc3ccccc3)c3[nH]c4ccc(Cl)cc4c3CCN2C1=O)NCc1ccco1,"inconclusive [inhibitor, full curve, poor fit]",–
